# Laboratory results taken from the supplement of paper PMC3334620.
# In all, about 33,000 sequences were measured (“E-score (-0.5 to 0.5)”: median about -0.056, highest 2% from about 0.38 on). Some of the results follow.
# Target: Stb4 (UniProt P50104)
# Experiment: PBM E-score (8-mer binding enrichment) (E-score (-0.5 to 0.5)); higher = stronger / more preferred TF binding; most listed sequences are background and not binding sites
# Settings: protein concentration: 200 nM; construct: GST-DNA-binding domain
# Method in brief: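 Detection of bound protein used fluorescent anti-GST, with scans normalised by masliner. The proteins were GST-tagged yeast transcription factors applied at about 100-200 nM to universal all-10-mer Agilent arrays made double-stranded by primer extension. Each ungapped eight-base word, pooled with its reverse complement, was scored with an E-score from the Universal PBM Analysis Suite.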
row,Sequence,PBM E-score
1,ATGTGCGA,-0.173
2,CGTGCGCC,0.0102
3,ATTGGTCC,0.0162
4,CACCAAGA,-0.155
5,ATGGCGGA,0.243
6,GCGGATAC,0.367
7,CTCCACAA,-0.209
8,CCGAACGG,0.413
9,GGGTAGGA,0.163
10,CTAAAGGA,-0.00185
11,ATTTTTTG,0.0376
12,GCCCAAAA,-0.115
13,AGTGGCAA,-0.166
14,ATAAGTCG,0.0995
15,AACCCTCC,0.167
16,AAAGAGCT,-0.128
17,AGTTGAAT,-0.0296
18,CAGCTCGC,-0.13
19,ATGGACTG,-0.212
20,CTGAAAGC,-0.0455
21,AATTTCTC,0.0433
22,TCCACCAA,-0.0554
23,AACCAAGA,-0.0962
24,AAGGGATA,-0.287
25,CGACAACC,0.0295

row,Sequence,PBM E-score
1,GCAAGCGA,-0.107
2,GAAATTTC,-0.0674
3,AGGACCGC,-0.0222
4,GAGTACTA,0.00964
5,CGACTACA,-0.121
6,AGCTATAG,-0.241
7,AGCAAAGA,-0.182
8,GGGGGTAC,-0.0768
9,ACGTCTTG,-0.208
10,TATCCACA,-0.184
11,CTATGGAC,-0.171
12,ATTGCTGG,-0.188
13,AGTTTCCA,-0.103
14,GATTTATA,0.0503
15,CGGGCTGC,0.221
16,CTGGCTAC,-0.0546
17,CACATATG,-0.435
18,ACAATCCT,-0.187
19,ATGTGTCA,-0.129
20,AACCCTGC,-0.174
21,CGTAGCTA,-0.281
22,GTACCTAA,-0.246
23,AACTCTGG,-0.123
24,ACCCGCCC,0.351
25,AATAATCC,0.147

row,Sequence,PBM E-score
1,AAACGTTG,-0.135
2,CCCGGGTA,0.407
3,GACTCCTA,-0.227
4,AGCGTATG,-0.00737
5,AGCATCGC,-0.145
6,AACGACTT,-0.0958
7,CTTAGAAG,-0.29
8,CATTCTAC,-0.0963
9,CAGTCATG,-0.203
10,CAATACTA,-0.0633
11,AGCAATAG,-0.00744
12,GTTCCTCA,0.00933
13,CGGCTTAA,0.359
14,ACCGTGCG,0.00112
15,AACATACA,-0.0188
16,AGAGGCTA,-0.17
17,GTAGGCAA,-0.206
18,ACGTCGTG,-0.119
19,GATCTACC,0.0755
20,CCCCACAG,-0.332
21,GATAGCGA,-0.0238
22,CCTGTGCC,-0.00035
23,CTGGTCCA,-0.0862
24,ATACCGCA,0.256
25,CCAGCTAG,-0.355

row,Sequence,PBM E-score
1,CTCAGGCA,-0.0232
2,AGAAGAAG,0.00552
3,CAGTCTCG,0.063
4,CTCTACTA,-0.146
5,ATACAGGG,0.0358
6,ATACGCGA,-0.207
7,CCGATGCA,0.339
8,AATACGAT,-0.067
9,GTTGGCGA,-0.0832
10,CCGGATCA,0.383
11,AAGCCTGA,-0.234
12,GTACTAGA,-0.0915
13,ACTTACAG,-0.193
14,CGCGGTCA,0.0397
15,GAACCTAC,0.0506
16,ACATCGGG,0.276
17,ACTTAGTA,0.0102
18,ATACAGAG,-0.267
19,GCCGCAAC,0.042
20,GGTGCCCA,-0.147
21,ATCAACGC,-0.151
22,AGTACGTG,-0.188
23,AAAATCCC,0.0969
24,GCTGACAA,-0.0045
25,CTTGCAAC,-0.342

row,Sequence,PBM E-score
1,AAGGTATG,-0.137
2,ATTCGAGA,-0.165
3,ACTTGTGA,-0.217
4,ACCCACCC,0.214
5,GGTAGTAC,0.0665
6,GACATCAA,0.0594
7,CTCCCGCA,0.266
8,AACACAAG,-0.184
9,TGAAAACA,0.0347
10,AGAAAGCA,0.00056
11,ACTCCGTC,0.0768
12,GCCCGAAC,0.262
13,CTCTCGGC,0.397
14,AAGTGGGA,0.0186
15,CCTCAACC,-0.0938
16,AGCTAGCC,0.04
17,GGAAGGAA,0.167
18,AGTCCCTC,-0.109
19,ACACTTAT,-0.0992
20,AATCCTCT,-0.217
21,ACCGTACT,0.0893
22,CACTTCAG,-0.188
23,ACCGTTGA,-0.137
24,CTGACCCC,-0.00228
25,CCACTCCC,0.143

row,Sequence,PBM E-score
1,ATCTATAC,0.0424
2,CGGCTTGC,0.216
3,AACACAGC,-0.00529
4,GGTTGGGA,0.0463
5,CATATCGA,-0.0475
6,CAGGCGGC,0.067
7,CTCAACAC,-0.0725
8,ACATTCGG,0.363
9,GAACAGCC,0.0331
10,CAGGTAGG,-0.242
11,CACTTGGA,-0.087
12,AGAGTCAC,-0.28
13,ACTAGTAA,-0.158
14,AGGCCCTA,-0.144
15,AGATACTA,-0.0256
16,CACTACGC,-0.149
17,ATCCAGGA,-0.182
18,GAGCAAAA,-0.158
19,CTCCCTCC,0.0694
20,CAACTGCG,-0.123
21,AACCATAC,0.0322
22,TGACTACA,-0.298
23,TCTAGGAA,-0.178
24,GAGAAAGA,0.123
25,GACTGAAA,0.0179

row,Sequence,PBM E-score
1,AGCCATCA,-0.0871
2,CGAAAACC,0.237
3,CGTTAACC,-0.058
4,AATATTAT,0.0902
5,AATTCGCC,0.094
6,GCGGGCAA,0.00911
7,ATAGCTGC,-0.0493
8,CCCAACTA,-0.101
9,CCCGAGAG,0.385
10,CTACGTGA,-0.227
11,GGTTGGCA,-0.0928
12,CTAAGTCA,-0.0795
13,CATTCGTC,-0.0104
14,AGCGCTAC,-0.148
15,CTGCCATA,-0.0926
16,AAAGAGGG,-0.224
17,GTAGATGA,0.0218
18,TGGATCCA,-0.0343
19,GGCGAAAC,0.0246
20,AATCTTAG,-0.0841
21,AGTGTTAT,0.00574
22,GATCCCAC,-0.00608
